Data published in patent US20190307729A1, “ANTIMICROBIAL COMPOUNDS AND METHODS FOR USE THEREOF” (VERSITECH LIMITED, priority 2016, published 2019).

What follows are compounds tested on hla promoter (assay: Paper disc diffusion and lux assay (hla promoter lux reporter)). Settings: induction or repression on hla promoter; DMSO control printed as +++.
Type: cell-based, S. aureus
Method: A single colony of bioluminescent S. aureus carrying the hla-promoter lux reporting system was resuspended in 200 μl of sterile water, diluted 1000-fold into 0.7% (w/v) BHI agar and overlaid onto BHI agar plates. 10 μl of the 50 mM analogues compounds dissolved in DMSO were impregnated to paper disc and placed on the lawn of bacteria. The plates were incubated overnight at 37° C. The luminescence was detected with Xenogen IVIS 100 in vivo imaging system (Xenogen, Alameda, Calif.).

Q: `O=C(O)CN1C(=O)/C(=C/c2ccccc2)SC1=S` [Compound 1] was tested. Which Virulence hla promoter did it give?
A: −

Q: With `COc1cc(/C=C2\SC(=S)N(CC(=O)O)C2=O)ccc1OCc1ccc(Cl)cc1` [Compound 6] as the compound, how does the Virulence hla promoter read?
A: −

Q: `COc1ccc(/C=C2\SC(=S)N(CC(=O)O)C2=O)cc1OCc1ccc(Cl)cc1` [Compound 15] was tested. Which Virulence hla promoter did it give?
A: +

Q: For `O=C(O)CN1C(=O)/C(=C/c2cccc(OCc3ccc(Cl)cc3Cl)c2)SC1=S` [Compound 17], which Virulence hla promoter is on record?
A: −

Q: Which Virulence hla promoter does the source give for `COc1ccc(/C=C2\SC(=S)N(CC(=O)O)C2=O)cc1OCc1ccc(Cl)cc1Cl` [Compound 18] here?
A: −

Q: With `CCOc1cc(/C=C2\SC(=S)N(CC(=O)O)C2=O)ccc1OCc1ccc(Cl)cc1` [Compound 20] as the compound, how does the Virulence hla promoter read?
A: −

Q: For `COc1cc(/C=C2\SC(=S)N(CC(=O)O)C2=O)ccc1OCc1ccccc1` [Compound 22], which Virulence hla promoter is on record?
A: −

Q: `CCOc1cc(/C=C2\SC(=S)N(CC(=O)O)C2=O)ccc1OCc1ccc(Cl)c(Cl)c1` [Compound 34] was tested. Which Virulence hla promoter did it give?
A: +

Q: Which Virulence hla promoter does the source give for `COCc1ccccc1` [Compound 52] here?
A: −

Q: Which Virulence hla promoter does the source give for `CC(C(=O)O)N1C(=O)/C(=C/c2ccc(Cl)cc2)SC1=S` (stereo not shown) [Compound 53] here?
A: +

Q: `O=C(O)CN1C(=O)/C(=C/c2cccc(OCc3ccccc3F)c2)SC1=S` [Compound 63] was tested. Which Virulence hla promoter did it give?
A: −

Q: Which Virulence hla promoter does the source give for `COC(=O)CN1C(=O)C(=Cc2ccc(OCc3ccccc3)cc2)SC1=S` [Compound 69] here?
A: −

Q: For `O=C(O)CN1C(=O)C(=Cc2ccc(OCc3ccc(Cl)cc3)cc2)SC1=S` [Compound 82], which Virulence hla promoter is on record?
A: −
